The results in this text go back to the supplement of paper PMC7125110.

± gives the standard error. Variants at the floor of the assay are shown more often than the library holds them.

B1: glmS ribozyme (parent)
chain: AUAAAAGCGCCAGAACUACAGAAAUGUAGUUGACGAGGAGGAGGUUUAUCGAAUUUUCGGCGGAUGCCUCCAAA

Holding throughout (settings): with glucosamine-6-phosphate
In series [1] the parent is B1. Description: self-cleavage kobs at 40 uM GlcN6P; higher = faster cleavage; RNA array. A digest of the protocol: (§1)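 Glucosamine-6-phosphate (40 μM to 10 mM) in HEPES/KCl/Mg(OAc)2 buffer was flowed over sequenced MiSeq chips, and tiles were imaged over ~14 h. Barcoded ribozyme variants there had been transcribed in situ by E. coli RNA polymerase and were tracked through a hybridised Cy3 probe at 37 °C. One- or two-exponential decay fits to per-tile medians, normalised to baseline and to non-cleaving reference variants, gave kobs. kcat and KM came from weighted Michaelis–Menten fits across concentrations.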

Variants of B1 are the subject of series [2]. The series can be described thus: self-cleavage kobs at 10000 uM GlcN6P; higher = faster cleavage; RNA array. A digest of the protocol:
as §1

Series [3] covers variants of B1. The series can be described thus: self-cleavage kobs at 640 uM GlcN6P; higher = faster cleavage; RNA array. A digest of the protocol:
as §1

Series [4] covers variants of B1. The series can be described thus: self-cleavage kobs at 160 uM GlcN6P; higher = faster cleavage; RNA array. A digest of the protocol: as §1
Variants of B1 are the subject of series [5]. Description: self-cleavage kobs at 2500 uM GlcN6P; higher = faster cleavage; RNA array. Summed up:
as §1

On to AUAAAAGCGCCAGAAGUACAGAAAUGUAGUUGACGAGGAGGAGGUUUAGCGAAUUUUCGGCGGAUGCCUCCAAA [C16G U49G], for which, in the series with glucosamine-6-phosphate [1], the “self-cleavage kobs at 40 uM GlcN6P” value is less than 1e-05 s⁻¹.

On to AUAAAAGCGCCAGAAGUACAGAAAUGUAGUUGACGAGGAGGAGGAUUAUCGAAUUUUCGGCGGAUGCCUCCAAA [C16G U45A], for which the “self-cleavage kobs at 40 uM GlcN6P” value with glucosamine-6-phosphate [1] amounted to 0.000245 ± 3.1e-05 s⁻¹.

Consider AUAAAAGCGCCAGAAAUACAGAAAUGUAGUUGACGAGGAGGAGGUUUAUCGAAUUUUCCGCGGAGGCCUCCAAA [C16A G59C U65G], for which the “self-cleavage kobs at 40 uM GlcN6P” value with glucosamine-6-phosphate [1] is less than 1e-05 s⁻¹. The “self-cleavage kobs at 10000 uM GlcN6P” value with glucosamine-6-phosphate [2] was less than 1e-05 s⁻¹.

Regarding AUAAAAGCGCCAGAAGUACAGAAAUGUAGUUGACGAGGAUGAGGUUUAUCGAAUUUUCGGCGGACGCCUCCAAA [C16G G40U U65C], the “self-cleavage kobs at 40 uM GlcN6P” value with glucosamine-6-phosphate [1] is less than 1e-05 s⁻¹. Besides, the “self-cleavage kobs at 640 uM GlcN6P” value with glucosamine-6-phosphate [3] was less than 1e-05 s⁻¹.

For AUAAAAGCGCCAGAAUUACAGAAAUGUAGUUGACGAGGAGGAGGUUUAUCGAAUUUUCGGCGGUUGCCUCCAAA [C16U A64U], the “self-cleavage kobs at 40 uM GlcN6P” value with glucosamine-6-phosphate [1] was less than 1e-05 s⁻¹.

For AUAAAAGCGCCAGAAGUACAGAAAUGUAGGUGACGAGGAGGAGGUUUAUCGAAUUUUGGGCGGAUGCCUCCAAA [C16G U30G C58G], the “self-cleavage kobs at 40 uM GlcN6P” value with glucosamine-6-phosphate [1] was less than 1e-05 s⁻¹.

As to AUAAAAGCGCCAGAAGUACAGAAAUGUAGAUGACGAGGAGGAGGUUUAUCGAAUUUUCGGCGGAGGCCUCCAAA [C16G U30A U65G], the “self-cleavage kobs at 40 uM GlcN6P” value in the series with glucosamine-6-phosphate [1] was less than 1e-05 s⁻¹.

Regarding AUAAAAGCGCCAGAAAUACAGAAAUGUAUUCGACGAGGAGGAGGUUUAUCGAAUUUUCGGCGGAUGCCUCCAAA [C16A G29U U31C], in the series with glucosamine-6-phosphate [1], the “self-cleavage kobs at 40 uM GlcN6P” value is 3.38e-05 ± 1.4e-05 s⁻¹. Moreover, the “self-cleavage kobs at 10000 uM GlcN6P” value with glucosamine-6-phosphate [2] came out at 0.000493 ± 0.00013 s⁻¹.

AUAAAAGCGCCAGAAGUACAGAAAUGUAGUUGACGAGGAGGAGGUUUCUCGAAUUUUCGGCGGAUGCCUCCAAA [C16G A48C]: the “self-cleavage kobs at 40 uM GlcN6P” value in the series with glucosamine-6-phosphate [1] was less than 1e-05 s⁻¹. For the same variant, the “self-cleavage kobs at 640 uM GlcN6P” value with glucosamine-6-phosphate [3] is less than 1e-05 s⁻¹. For the same variant, the “self-cleavage kobs at 160 uM GlcN6P” value in the series with glucosamine-6-phosphate [4] was less than 1e-05 s⁻¹.

As for AUAAAAGCGCCAGAAUUACAGAAAUGUAGUUGACGAGGAGGAGGUUUAACGAAUUUUCGGCGGAUGCCUCCAAA [C16U U49A], in the series with glucosamine-6-phosphate [1], the “self-cleavage kobs at 40 uM GlcN6P” value is less than 1e-05 s⁻¹. Further, the “self-cleavage kobs at 640 uM GlcN6P” value with glucosamine-6-phosphate [3] was less than 1e-05 s⁻¹. The “self-cleavage kobs at 160 uM GlcN6P” value with glucosamine-6-phosphate [4] is less than 1e-05 s⁻¹.

With AUAAAAGCGCCAGAAAUACAGAAAUGUAGUUGACGAGGAGGAGAUUUAUCGAAUUUUCGGCGGAUGACUCCAAA [C16A G44A C67A], in the series with glucosamine-6-phosphate [1], the “self-cleavage kobs at 40 uM GlcN6P” value is less than 1e-05 s⁻¹.

As for AUAAAAGCGCCAGAAGUACAGAAAUGUAGUUGACGAGGAGGAGGUUUAUCGAAUGUUCGGCGGAUGCCUCCAAA [C16G U55G], the “self-cleavage kobs at 40 uM GlcN6P” value in the series with glucosamine-6-phosphate [1] is 0.000147 ± 2.3e-05 s⁻¹.

Consider AUAAAAGCGCCAGAAGUACAGAAAUGUAGUUGACGAGGAGGAGCUUUAUCGAAUUUUCGGCGGAUGCCUCUAAA [C16G G44C C71U], for which the “self-cleavage kobs at 40 uM GlcN6P” value in the series with glucosamine-6-phosphate [1] was less than 1e-05 s⁻¹. For the same variant, the “self-cleavage kobs at 10000 uM GlcN6P” value in the series with glucosamine-6-phosphate [2] is less than 1e-05 s⁻¹.

Take AUAAAAGCGCCAGAAAUACAGAAAUGUAGUUGACGAGGAGGAGGUUUAUCGAAUUUUCGGCUGAUGCCUCCAAA [C16A G62U]: the “self-cleavage kobs at 40 uM GlcN6P” value with glucosamine-6-phosphate [1] is less than 1e-05 s⁻¹. The “self-cleavage kobs at 640 uM GlcN6P” value in the series with glucosamine-6-phosphate [3] is less than 1e-05 s⁻¹. Besides, the “self-cleavage kobs at 160 uM GlcN6P” value in the series with glucosamine-6-phosphate [4] was less than 1e-05 s⁻¹.

Consider AUAAAAGCGCCAGAAUUACAGAAAUGUAGUUGAUGAGAAGGUGGUUUAUCUAAUUGUCGGCGGAUGCCUCCAAA [C16U C34U G38A A42U G51U U56G], for which, in the series with glucosamine-6-phosphate [1], the “self-cleavage kobs at 40 uM GlcN6P” value was less than 1e-05 s⁻¹. Besides, in the series with glucosamine-6-phosphate [5], the “self-cleavage kobs at 2500 uM GlcN6P” value is less than 1e-05 s⁻¹.

With AUAAAAGCGCCAGAAGUACAGAAAUGUAGUUGACGCGGAGGAGGUUUAUCGAAUUUUCGGUGGAUGCCUCCAAA [C16G A36C C61U], in the series with glucosamine-6-phosphate [1], the “self-cleavage kobs at 40 uM GlcN6P” value is less than 1e-05 s⁻¹. The “self-cleavage kobs at 640 uM GlcN6P” value with glucosamine-6-phosphate [3] is less than 1e-05 s⁻¹. The “self-cleavage kobs at 160 uM GlcN6P” value in the series with glucosamine-6-phosphate [4] was less than 1e-05 s⁻¹. Besides, the “self-cleavage kobs at 10000 uM GlcN6P” value with glucosamine-6-phosphate [2] was less than 1e-05 s⁻¹.

On to AUAAAAGCGCCAGAAUUACAGAAAUGUAGUUGACGAGGAGGAGGUUUAUCGAAUUUUCCGGGGAUGCCUCCAAA [C16U G59C C61G], for which, in the series with glucosamine-6-phosphate [1], the “self-cleavage kobs at 40 uM GlcN6P” value is less than 1e-05 s⁻¹. For the same variant, the “self-cleavage kobs at 10000 uM GlcN6P” value with glucosamine-6-phosphate [2] was less than 1e-05 s⁻¹.

AUAAAAGCGCCAGAAGUACAGAAAUGUAGUUGACGAGGAGGAGGUUUAUCGAAUUUUCGGCGGAUGCCUUCAAA [C16G C70U]: the “self-cleavage kobs at 40 uM GlcN6P” value with glucosamine-6-phosphate [1] worked out at 0.000111 ± 1.4e-05 s⁻¹. Further, the “self-cleavage kobs at 640 uM GlcN6P” value with glucosamine-6-phosphate [3] is 0.000455 ± 8e-05 s⁻¹. The “self-cleavage kobs at 160 uM GlcN6P” value in the series with glucosamine-6-phosphate [4] was 0.000359 ± 6.2e-05 s⁻¹. In addition, the “self-cleavage kobs at 2500 uM GlcN6P” value with glucosamine-6-phosphate [5] was determined as 0.000561 ± 9e-05 s⁻¹. The “self-cleavage kobs at 10000 uM GlcN6P” value with glucosamine-6-phosphate [2] came to 0.00521 ± 0.001 s⁻¹.
